Experiment [1] concerns the target T1, RHBDL4 (endogenous) (not stated (endogenous; cell line of Figure 5D not named, HeLa or MEF)) (UniProt Q8TEB9).
T1 sequence: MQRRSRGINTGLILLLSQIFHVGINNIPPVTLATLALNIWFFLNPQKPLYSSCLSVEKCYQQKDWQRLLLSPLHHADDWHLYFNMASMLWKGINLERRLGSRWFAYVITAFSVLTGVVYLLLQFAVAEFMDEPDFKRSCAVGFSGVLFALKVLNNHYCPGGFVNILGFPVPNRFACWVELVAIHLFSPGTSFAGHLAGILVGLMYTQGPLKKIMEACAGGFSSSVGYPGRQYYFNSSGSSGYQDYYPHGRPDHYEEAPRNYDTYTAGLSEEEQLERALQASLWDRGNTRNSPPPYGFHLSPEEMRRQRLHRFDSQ
The experiment in a line: co-IP; endogenous RHBDL4 precipitated from cell lysate (25 mM Tris, 150 mM NaCl, 1 mM EDTA, 1% NP-40, 5% glycerol, pH 7.4) with rabbit anti-RHBDL4 crosslinked to Protein A/G magnetic beads, 1 h at 4 °C; Western blot. In general terms: A western blot detects proteins with antibodies after separation by electrophoresis.

The chains behind the UniProt entries cited, without tags or fusion partners.
UniProt Q07065: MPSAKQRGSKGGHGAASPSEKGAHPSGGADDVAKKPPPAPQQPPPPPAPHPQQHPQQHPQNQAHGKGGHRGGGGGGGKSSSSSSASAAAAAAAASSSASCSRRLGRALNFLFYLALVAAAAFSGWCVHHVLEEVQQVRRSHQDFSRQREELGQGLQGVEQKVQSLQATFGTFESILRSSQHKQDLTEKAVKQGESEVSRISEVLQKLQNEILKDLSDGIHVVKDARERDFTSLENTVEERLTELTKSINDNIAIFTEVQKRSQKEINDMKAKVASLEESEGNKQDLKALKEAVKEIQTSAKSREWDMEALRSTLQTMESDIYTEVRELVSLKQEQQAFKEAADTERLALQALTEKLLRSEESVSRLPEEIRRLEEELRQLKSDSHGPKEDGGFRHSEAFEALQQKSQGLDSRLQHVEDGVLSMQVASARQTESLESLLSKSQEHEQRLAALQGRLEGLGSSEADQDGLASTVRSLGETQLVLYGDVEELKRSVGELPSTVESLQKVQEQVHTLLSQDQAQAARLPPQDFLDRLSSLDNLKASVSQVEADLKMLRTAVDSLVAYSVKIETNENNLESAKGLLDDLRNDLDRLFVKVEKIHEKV

A further experiment deals with T2, RHBDL4 HA (UniProt Q8TEB9).
T2 sequence: T1 sequence
The experiment in a line: co-IP; tagged RHBDL4 and CLIMP-63 transiently expressed in HeLa cells; lysis buffer with CHAPS instead of NP-40; anti-HA or anti-Myc magnetic beads; Western blot.

The target of experiment [2] is CLIMP-63 hemagglutinin (HA) (UniProt Q07065). Described as above.
Another experiment deals with CLIMP-63 Myc (UniProt Q07065). Described as above.

Numbering of substitutions follows the chain as printed. Numbers in names are those of the source. Results are given in words; binding and its absence hold for the method and conditions named. In cells and extracts the contact can be indirect. Some binding calls cover weakened binding; strength is not graded here. For some assays here: Tags and fused reporters may be left off the sequences shown.

“cytoskeleton-linking membrane protein 63 (CLIMP-63), endogenous (from UniProt Q07065 1-602)”: the binding entry in experiment [1] is reported as “binds”.

For “CLIMP-63 Myc (from UniProt Q07065 1-602)”, in the experiment with RHBDL4 HA, the binding result was “binds”.

B1: RHBDL4 Myc (enzyme, UniProt Q8TEB9 1-315)
chain: T1 sequence
In the case of B1, in experiment [2], the binding result is “binds”.

B2: RHBDL4 S144A (enzyme, UniProt Q8TEB9 1-315)
chain: T1 sequence with S144A
As for B2, the binding entry with CLIMP-63 Myc was “binds”.

B3: calnexin (CNX), endogenous (protein, UniProt P27824 21-592)
chain: HDGHDDDVIDIEDDLDDVIEEVEDSKPDTTAPPSSPKVTYKAPVPTGEVYFADSFDRGTLSGWILSKAKKDDTDDEIAKYDGKWEVEEMKESKLPGDKGLVLMSRAKHHAISAKLNKPFLFDTKPLIVQYEVNFQNGIECGGAYVKLLSKTPELNLDQFHDKTPYTIMFGPDKCGEDYKLHFIFRHKNPKTGIYEEKHAKRPDADLKTYFTDKKTHLYTLILNPDNSFEILVDQSVVNSGNLLNDMTPPVNPSREIEDPEDRKPEDWDERPKIPDPEAVKPDDWDEDAPAKIPDEEATKPEGWLDDEPEYVPDPDAEKPEDWDEDMDGEWEAPQIANPRCESAPGCGVWQRPVIDNPNYKGKWKPPMIDNPSYQGIWKPRKIPNPDFFEDLEPFRMTPFSAIGLELWSMTSDIFFDNFIICADRRIVDDWANDGWGLKKAADGAAEPGVVGQMIEAAEERPWLWVVYILTVALPVFLVILFCCSGKKQTSGMEYKKTDAPQPDVKEEEEEKEEEKDKGDEEEEGEEKLEEKQKSDAEEDGGTVSQEEEDRKPKAEEDEILNRSPRNRKPRRE
As to B3, in experiment [1], the binding result is recorded as “no binding”.

(Values after PMC9136127.)
